# Values joined by “and” are separate entries in the source; they are usually repeats but may differ in a detail not shown here. Equal values may be shown once. The whole screen tested about 310,000 compounds, of which about 18,000 (5.8%) were called active. Inconclusive means that the source gave no clear call. Such entries were picked first, then a sample of the others. The call rests on the fitted dose curve; in most records, active means well fitted inhibition curve with a large enough effect; inconclusive means small, poorly fitted or top-dose-only effect, or another doubt; inactive means no such curve, though single readings can be large or run the other way. No potency is given beside an inconclusive call; the fits are too rough.
# Test: Primary qHTS for delayed death inhibitors of the malarial parasite plastid, 48 hour incubation
# Conditions: P. falciparum luciferase growth in erythrocytes; series mostly up to 28.7 µM
# Procedure, shortened: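 Here the parasites carry a stable luciferase gene and grow inside erythrocytes in Albumax-based RPMI medium with compound for one erythrocytic cycle. Activity is scored as loss of luminescent signal.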
# Potency means the concentration at half of the fitted maximal effect; tags describe the fitted curve by direction and shape.
row,Structure (SMILES),Potency
1,Cn1nc2c3ccccc3n(Cc3ccc(F)cc3)c2nc1=S,"inconclusive [inhibitor, single point]"
2,CCOC(=O)C1=C(COC(=O)c2ccc(C)c(S(=O)(=O)N3CCOCC3)c2)NC(=O)NC1C (stereo unspecified),"inconclusive [inhibitor, single point]"
3,O=C(NCc1ccco1)c1cccc(S(=O)(=O)N2CCCCC2)c1,"inconclusive [inhibitor, single point]"
4,COc1cccc(CC2(CO)CCCN(Cc3c(C)cc(C)cc3-n3cccn3)C2)c1 (stereo unspecified),"inconclusive [inhibitor, single point]"
5,CO[C@H]1C[C@@H]2CC[C@@H](C)[C@@](O)(O2)C(=O)C(=O)N2CCCC[C@H]2C(=O)O[C@H]([C@H](C)C[C@@H]2CC[C@@H](OCCO)[C@H](OC)C2)CC(=O)[C@H](C)/C=C(\C)[C@@H](O)[C@@H](OC)C(=O)[C@H](C)C[C@H](C)/C=C/C=C/C=C/1C,active: 1.51 µM
6,O=C(CCc1ccccc1)NC(NC(=S)Nc1cccc(Cl)c1)C(Cl)(Cl)Cl (stereo unspecified),"inconclusive [inhibitor, single point]"
7,CCOc1ccccc1C(=O)N[C@H](C(=O)OCc1cc([N+](=O)[O-])cc2c1OCOC2)C(C)C,active: 13.1 µM
8,CN(C)C=NC(=O)c1cccn1-c1ncc(C(F)(F)F)cc1Cl,"inconclusive [inhibitor, partial curve, poor fit]"
9,COc1ccc(-n2nnnc2SCC(=O)Nc2ccc(OC)cc2OC)cc1,inactive
10,COC(=O)CSc1nnc(CNc2nc(-c3ccccc3)cs2)n1C,"inconclusive [inhibitor, single point]"
11,COc1cc(/C=N\NC(=O)c2cccnc2)ccc1OC(=O)c1ccccc1Cl,"inconclusive [inhibitor, partial curve, poor fit]"
12,Clc1ccccc1/C=C/c1nc(-c2ccccn2)no1,active: 2.08 µM
13,Cc1cc(NC(=O)CCC(=O)N(CCC(C)C)C(C(=O)NC2CCCC2)c2ccccc2C)no1 (stereo unspecified),"inconclusive [inhibitor, single point]"
14,O=c1[nH]c(/C=C\c2cccc(O)c2)nc(O)c1[N+](=O)[O-],"inconclusive [inhibitor, partial curve, poor fit]"
15,O=C(COC(=O)c1n[nH]c2ccccc12)Nc1cccc(S(=O)(=O)N2CCOCC2)c1,"inconclusive [inhibitor, partial curve, poor fit]"
16,O=C(c1ccc(COc2ccccc2)o1)N1CCN(S(=O)(=O)c2ccccc2Cl)CC1,active: 13.1 µM
17,CC1(C)Cc2nc3sc4c(N5CCCC5)nnnc4c3cc2CO1,"inconclusive [inhibitor, partial curve, poor fit]"
18,COc1cccc(NC(=O)Cn2cc(C(=O)c3ccc(C)cc3)c(=O)c3cc(OC)ccc32)c1,"inconclusive [inhibitor, single point]"
19,O=C(CSc1nnc(NC(=O)C2CC2)s1)NCc1cccs1,inactive
20,COC(=O)NC1CSCC1OC(=O)c1ccc(Br)cc1 (stereo unspecified),"inconclusive [inhibitor, single point]"
21,CCc1cc(=O)oc2cc(C)cc(OC(C)C(=O)NCc3cccnc3)c12 (stereo unspecified),"inconclusive [inhibitor, single point]"
22,COCCNC(=O)c1ccc(CS(=O)(=O)c2ccccc2)o1,"inconclusive [inhibitor, partial curve, poor fit]"

row,Structure (SMILES),Potency
1,Cc1nc(C(=O)NNC(=O)c2ccc(C(F)(F)F)cc2)cs1,"inconclusive [inhibitor, single point]"
2,COc1ccc(NC(=O)/C(=C\c2ccc(OC)c(OC)c2)NC(=O)c2ccco2)cc1,"inconclusive [inhibitor, partial curve]"
3,O=S(=O)(c1cccc(-c2csc(-c3ccccc3)n2)c1)N1CCOCC1,"inconclusive [inhibitor, single point]"
4,CN1CCN(Cc2cc(COCc3ccccc3)c3cccnc3c2O)CC1,active: 4.15 µM and active: 2.08 µM
5,NS(=O)(=O)c1ccc(NC(=O)Nc2ccc3c(c2)OCO3)cc1,"inconclusive [inhibitor, full curve, poor fit]"
6,COc1ccc2oc(C(=O)Nc3cccc(S(=O)(=O)N4CCOCC4)c3)c(C)c2c1,"inconclusive [inhibitor, single point]"
7,NC(CCCCCP(=O)(c1ccccc1)c1ccccc1)C(=O)O (stereo unspecified),"inconclusive [inhibitor, partial curve, poor fit]"
8,Cc1ccc(C(=O)CSc2nnc(Cn3nnc4ccccc43)n2C)cc1,inactive
9,Cc1nnsc1C(=O)N1CCC(C(=O)c2ccccc2)CC1,inactive
10,CCOc1ccc(NC(=O)c2ccc(-n3cccn3)nc2)cc1,inactive
11,CC(C)c1cc(CN2CCN(CCC#N)CC2)cc(C(C)C)c1O,active: 2.33 µM
12,NC(=O)c1ccc(OCCC(O)N2CC=C(c3ccc(F)cc3)CC2)cc1 (stereo unspecified),"inconclusive [inhibitor, partial curve]"
13,Cc1onc(-c2ccccc2)c1C(=O)NC(=S)NNC(=O)c1ccccc1O,"inconclusive [inhibitor, single point]"
14,O=C(O)Cn1c(O)c(C=Nc2ccccc2)sc1=S,inactive
15,CCN(CC)C(=O)c1ccc(NC(=O)c2cccc(S(=O)(=O)N3CCN(Cc4ccccc4)CC3)c2)cc1,active: 10.4 µM
16,CCOCCCn1cc(C(=O)c2cc(Br)ccc2O)cc(C#N)c1=O,active: 5.22 µM
17,Cc1nc(NC(=O)c2ccccc2)sc1-c1csc(Nc2ccc(F)cc2)n1,"inconclusive [inhibitor, full curve, poor fit]"
18,O=C(CCCCCn1c(=S)[nH]c2ccsc2c1=O)NC1CCCCC1,inactive
19,CCOc1ccc(C(=O)NCCN2CCCCC2)c(OCC)c1,"inconclusive [inhibitor, partial curve]"
20,CC(C)c1ccc(NC(=O)CCNC(=O)Cn2cnc3ccccc3c2=O)cc1,inactive
21,CC(=O)Nc1cccc(C(=O)Nc2nc(C)cs2)c1,"inconclusive [inhibitor, single point]"
22,CCc1ccc2[nH]c(=O)c(CN(Cc3ccccc3OC)C(=O)Nc3ccccc3OC)cc2c1,active: 11.7 µM

row,Structure (SMILES),Potency
1,CSc1cc(C)c(OCC(=O)Nc2c(C)nn(C)c2C)c(C)c1,"inconclusive [inhibitor, single point]"
2,CCc1ccc(-c2cc(C(=O)NCCCn3ccnc3)c3ccccc3n2)s1,"inconclusive [inhibitor, single point]"
3,COc1cccc(CNC(=O)CSc2ccc(-c3ccccn3)nn2)c1,"inconclusive [inhibitor, full curve, poor fit]"
4,COc1ccc(S(=O)(=O)NC(C)C(=O)Nc2ccc3c(c2)OCCO3)cc1OC (stereo unspecified),"inconclusive [inhibitor, single point]"
5,Cn1c(=O)c(=O)n(C)c2cc(S(=O)(=O)N3CCOc4ccccc43)ccc21,"inconclusive [inhibitor, single point]"
6,Cn1nc(C(F)(F)F)c2cc(C(=O)Nc3ccc(F)cc3)sc21,"inconclusive [inhibitor, partial curve]"
7,Nn1c(SCC(=O)NCCN2C(=O)CSC2=O)nnc1-c1ccc(OC(F)F)cc1,"inconclusive [inhibitor, single point]"
8,Cc1ccccc1Oc1nc(-c2ccccn2)nc2ccccc12,active: 1.85 µM
9,CCN(CC)c1ccc(C=C(c2nnnn2-c2ccc(C)cc2)c2nnnn2-c2ccc(C)cc2)cc1,active: 1.65 µM
10,Cc1cc(-c2cccnc2)c(C#N)c(SCc2cccc(F)c2)n1,"inconclusive [inhibitor, single point]"
11,Clc1cccc(N2CCNCC2)c1,"inconclusive [inhibitor, single point]"
12,O=C(NC1CCCCCC1)c1ccc(CS(=O)Cc2cccc(Cl)c2)o1 (stereo unspecified),inactive
13,Cc1cccc2c1cnn2C(=O)Nc1ccccc1Cl,inactive
14,N#C/C(=N\Nc1ccc(S(=O)(=O)N2CCOCC2)cc1)C(N)=S,active: 14.7 µM
15,CC1CCc2cc(F)ccc2N1C(=O)C12CCC(C)(C(=O)O1)C2(C)C (stereo unspecified),"inconclusive [inhibitor, single point]"
16,C[C@@]12C(=O)N(Cc3ccc(Cl)cc3)CC(=O)N1[C@H]1c3ccccc3OC[C@@H]1[C@@H]2c1ccccc1,"inconclusive [inhibitor, single point]"
17,CSc1ccc(S(=O)(=O)NCC(=O)OCC(=O)N2CCC(C)CC2)cc1[N+](=O)[O-],"inconclusive [inhibitor, single point]"
18,Cn1c(SCC(=O)Nc2ccccc2)nnc1-c1ccc(NC(=O)CCc2ccccc2)cc1,"inconclusive [inhibitor, single point]"
19,Cc1ccc(OCCCCn2ccnc2)c(Cl)c1,"inconclusive [inhibitor, single point]"
20,CCOc1ccccc1CNC(=O)c1cn(C)c(=O)c2c1c1ccccc1n2C,inactive
21,Cc1nnc(SCc2cc(=O)[nH]c(Nc3nc(C)c4cc(C)c(C)cc4n3)n2)s1,inactive
22,COc1ccc(-c2sc(Nc3ccc(F)c(F)c3F)nc2CCC(=O)NN)cc1,"inconclusive [inhibitor, single point]"

# Source: PubChem BioAssay AID504832 (National Center for Advancing Translational Sciences (NCATS), 2011)
